Results as given in PMC10228019.
These are yes or no findings as the source states them, for the method shown. In cells and extracts the contact can be indirect. Some results given as binding are weak or reduced against the parent protein; the word gives no strength.

Protein sequences, listed by entry. Tags and fused reporters are not part of them. Lines headed by an entry give the natural chain unless they say otherwise; changes in a name come on top.
UniProt Q9Y3S2: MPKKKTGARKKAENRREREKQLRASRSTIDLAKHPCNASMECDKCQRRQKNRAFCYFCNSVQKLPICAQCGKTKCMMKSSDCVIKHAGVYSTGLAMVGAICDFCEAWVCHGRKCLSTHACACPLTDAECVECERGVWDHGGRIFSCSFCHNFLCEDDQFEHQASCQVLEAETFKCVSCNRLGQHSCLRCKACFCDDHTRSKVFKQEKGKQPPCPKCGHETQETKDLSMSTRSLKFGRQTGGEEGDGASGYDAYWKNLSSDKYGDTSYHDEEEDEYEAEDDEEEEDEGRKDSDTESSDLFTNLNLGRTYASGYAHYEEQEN
UniProt P0DMV8: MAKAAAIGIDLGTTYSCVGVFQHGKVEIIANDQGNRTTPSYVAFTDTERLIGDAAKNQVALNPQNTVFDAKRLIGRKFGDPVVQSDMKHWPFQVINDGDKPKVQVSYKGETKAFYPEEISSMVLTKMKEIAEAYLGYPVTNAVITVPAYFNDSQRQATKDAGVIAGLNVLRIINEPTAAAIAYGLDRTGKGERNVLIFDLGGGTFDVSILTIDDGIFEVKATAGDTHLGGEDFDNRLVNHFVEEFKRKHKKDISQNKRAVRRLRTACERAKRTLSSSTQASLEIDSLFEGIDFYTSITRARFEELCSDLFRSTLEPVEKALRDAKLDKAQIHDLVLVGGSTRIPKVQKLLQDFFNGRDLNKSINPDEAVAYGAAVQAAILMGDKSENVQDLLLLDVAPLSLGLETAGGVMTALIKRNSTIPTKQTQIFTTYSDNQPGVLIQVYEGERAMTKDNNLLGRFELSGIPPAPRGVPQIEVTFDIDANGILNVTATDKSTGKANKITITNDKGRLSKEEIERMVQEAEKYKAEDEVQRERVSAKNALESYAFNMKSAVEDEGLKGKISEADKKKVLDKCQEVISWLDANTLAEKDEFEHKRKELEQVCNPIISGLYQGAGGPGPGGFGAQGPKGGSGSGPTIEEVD
UniProt P11142: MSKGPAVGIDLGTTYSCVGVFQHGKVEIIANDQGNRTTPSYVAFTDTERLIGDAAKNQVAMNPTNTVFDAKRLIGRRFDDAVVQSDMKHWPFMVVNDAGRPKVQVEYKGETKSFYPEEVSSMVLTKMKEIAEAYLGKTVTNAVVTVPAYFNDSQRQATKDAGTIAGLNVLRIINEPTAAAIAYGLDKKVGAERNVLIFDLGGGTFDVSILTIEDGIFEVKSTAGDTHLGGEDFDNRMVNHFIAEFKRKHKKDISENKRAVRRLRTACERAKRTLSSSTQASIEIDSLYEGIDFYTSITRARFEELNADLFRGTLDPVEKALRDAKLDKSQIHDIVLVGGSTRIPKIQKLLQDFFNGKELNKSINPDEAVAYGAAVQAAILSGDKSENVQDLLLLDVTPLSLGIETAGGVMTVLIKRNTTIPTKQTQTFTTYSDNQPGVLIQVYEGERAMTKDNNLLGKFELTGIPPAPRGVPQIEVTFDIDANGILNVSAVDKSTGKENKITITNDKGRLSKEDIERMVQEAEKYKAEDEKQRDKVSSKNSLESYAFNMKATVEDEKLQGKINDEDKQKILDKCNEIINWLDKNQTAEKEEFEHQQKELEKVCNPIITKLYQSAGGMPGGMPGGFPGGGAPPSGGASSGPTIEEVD

These substances were tested against FLAG-NOA36 (ZNF330/NOA36, Zinc Finger protein 330), expressed in HEK293 cells (human) (UniProt Q9Y3S2) (assay: co-IP; HEK293 cells co-transfected with FLAG-NOA36 and one HA-tagged HSP construct; anti-FLAG magnetic beads; western blot with anti-HA).
In the case of HA-HSPA1 (from UniProt P0DMV8 1-641), the binding is reported as “binds”.
HA-HSPA8 (from UniProt P11142-1 1-646) was tested, and the binding was “binds”.
With “HA-SBD + LD (HA-tagged truncated HSPA8 containing the SBD + LD domains) (from UniProt P11142 385-646) (domain or fragment)” the binding was “binds”.
“HA-tagged truncated HSPA8 containing the NBD (from UniProt P11142 1-384) (domain or fragment)” was tested, and the binding was “no binding”.
In the case of “HA-tagged truncated HSPA8 containing the NBD + SBD (from UniProt P11142 1-543) (domain or fragment)”, the binding is reported as “no binding”.
